± gives the standard deviation of the averaged measurements. The list shows a part of the results.
Each sequence was assayed on PfAP2-I AP2 domain 3 (GST-tagged) (assay: gcPBM binding intensity (ln(normalized median fluorescence intensity)); higher = stronger DNA binding).
Outline: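 Binding intensity values are the highest Masliner-normalised natural-log median intensity among replicate spots of either probe orientation. The binding step lasted 1 h in 1× PBS with 1% milk, 0.2 mg/ml BSA, 0.5% salmon testes DNA and 0.03% Triton X-100, using GST-tagged P. falciparum DNA-binding domains expressed in E. coli on an Agilent 4 × 180k array of primer-extended double-stranded 36-bp intergenic genomic probes plus negative controls. Alexa488 anti-GST antibody and a 488 nm scan detected bound protein.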

Row | Sequence | gcPBM binding intensity (ln)
1 | AAGAATAAGAAGAAGGATCCCCTTCAAAAAAAAAAA [TGCATGCA_negctrl_site525] | 7.6 ± 1.1
2 | AACAGATAAAAGGGTACACACATATATACAAGTACA [CACACA_site7959] | 7.89 ± 0.33
3 | TATATAGATATGATAGTGCATTTTTAGAAAACATAA [GTGCAC_site9962] | 9.44 ± 0.14
4 | TTATGTAGCTAGCTATAAACTTTTTTTTATTTAAAA [CACACA_negctrl_site1297] | 7.33 ± 0.62
5 | ATTATTATTAAATACACACACATACCTCCATGTTAG [CACACA_site3430] | 7.83 ± 0.59
6 | ATATATATATATATATGTACATACTATACAATAATT [XGTACX_site3546] | 9.45 ± 0.67
7 | ATATGTATGTATAATCGTACAAAATTTGGCGATCTT [XGTACX_site8698] | 7.47 ± 0.5
8 | TTTATATGTATTAATTGTACACATATAATGTGTTTT [XGTACX_site3064] | 7.61 ± 0.5
9 | TTTTTTTTAAAACTATGTACGTAAAAATTGTAGTTT [XGTACX_site2302] | 8.215 ± 0.049
10 | GATATAATTATGTGTACACAATTTTTTTTTTTTTTT [CACACA_site4501] | 8.21 ± 0.25
11 | AAATAAAGGAAATAAAAAGAAACCAATTTCGAATAT [CACACA_negctrl_site953] | 7.59 ± 0.77
12 | AGAACTTTTAATGGATGTACAGTTATTTTATTATTT [XGTACX_site6226] | 7.83 ± 0.43
13 | ATATAGTAAATTGGTAGTACATAAAATGATTTTATG [XGTACX_site4143] | 7.85 ± 0.52
14 | AATAATAAAGTGAACACACACATATAATATATATAT [CACACA_site4143] | 8.87 ± 0.15
15 | ATAATTAAAATGCTCACACACATAAAAAAAAATTAA [CACACA_site2149] | 7.68 ± 0.48
16 | CAAACAAACGAACACACACACACACGCAAAAATGAT [CACACA_site7194] | 8.05 ± 0.52
17 | ATGCTTTTATGCACACGTACAAAAATATTATATAAT [XGTACX_site5589] | 10.6 ± 0.86
18 | ATAATTTTATCATATATATATATATATAAATACTTA [CACACA_negctrl_site743] | 7.82 ± 0.33
19 | AAAAATTGAATTTTTTTTTTTTTTTTGAGAAGGAAA [CACACA_negctrl_site1196] | 7.3 ± 0.52
20 | AATATTTTTGTCGTTAGTACATAAAAAATAATAATA [XGTACX_site3074] | 7.73 ± 0.44
21 | TTATTATTAAAAAAAAGTACAGAATTGAATAATACA [XGTACX_site651] | 7.89 ± 0.39
22 | TTTTAATTTATTAATTGTACATGTATTTTAAGATTA [XGTACX_site8417] | 7.64 ± 0.28

Row | Sequence | gcPBM binding intensity (ln)
23 | TAAACATTTGGCTGATGTACTTGCTACCTTAAATCA [XGTACX_site5514] | 7.32 ± 0.59
24 | ATTTTTGTGTATTAATGTACTTTATGCATATTTGAC [XGTACX_site3353] | 9.74 ± 0.78
25 | TATTTTTATAAGTAAAAGGAGCACAGTTAAAGGATC [XGTACX_negctrl_site362] | 8.5 ± 0.4
26 | TTTTAAATATGAACATGTACATGTAAATTTACATGT [XGTACX_site4573] | 7.83 ± 0.45
27 | TTTATAAAAATGAACACACACATATAAATATAAATA [CACACA_site7607] | 7.74 ± 0.47
28 | AAAAATAGAATAAATACACACCCGTGTAACGGATTT [CACACA_site3372] | 7.29 ± 0.93
29 | AATAATATATTTAGGGGTACATAATAATATATTTTA [XGTACX_site8366] | 8.08 ± 0.028
30 | GATAAATTAAGACACACACACATATATTTATTTATA [CACACA_site7789] | 8.06 ± 0.5
31 | TAGTATTAGATATATACACACATATATACCTATAGA [CACACA_site7083] | 7.41 ± 0.57
32 | TTACGATCATCAATATGTACATATATATATATATAT [XGTACX_site4301] | 9.21 ± 0.17
33 | ATTTTTTTTTTTATAGTGGATCCACATTTGCCATTT [CACACA_negctrl_site1106] | 8.09 ± 0.78
34 | AATATTTATATTTACACACACATAATACATCTATGT [CACACA_site4187] | 7.84 ± 0.54
35 | TATAAAAAAATATTATAATATATATATATATATATA [XGTACX_negctrl_site41] | 9.21 ± 0.32
36 | TATAAATAAAGATATACACACATATAAATATTTTTC [CACACA_site7798] | 7.55 ± 0.44
37 | TTGGTCTTTTAAAAAAGTACAAAAAAAAAAAAAAAA [XGTACX_site1665] | 8.13 ± 0.35
38 | AAAAAAAAGTTAAGCACACACATGAATAAATAATAC [CACACA_site840] | 8.52 ± 0.46
39 | TTAACCGGTTTATGGGTGCACATTCTTCTTAAATAA [GTGCAC_site9928] | 10.4 ± 0.32
40 | CCTAGAAAAGTATATACACACGCGCAAAATAAAATT [CACACA_site1413] | 8.31 ± 0.69
41 | CATGTTCATCAGAACGCACACATAATGGTTTACTTA [CACACA_site898] | 8.05 ± 0.48
42 | AGTAACTAATTAAATGCATGTCGATATATATTATAT [TGCATGCA_site1038] | 7.82 ± 0.68
43 | GTGTATATGTATATATGTACATAAATTTTTTTTTTT [XGTACX_site7083] | 7.63 ± 0.3

From the supplement of paper PMC11417369
